Values marked as one replicate rest on one cluster of the flow cell; about a third of the high ones do not repeat.
test system: ATP; assay: switch fluorescence ratio, 500 uM ATP over buffer (Cy3 cluster intensity, sum of 5 cycles each) (fold (ratio)); higher = stronger signal-on switching upon ATP binding; sequences stand for … in TCGTCGGCAGCGTCAGATGTGTATAAGAGACAGTTTTTTTTTTTTTTTTTTTTTTTTT…TC; settings: aptamer strand: ATP DNA aptamer (quencher-CACCTGGGGGAGTATTGCGGAGGAAGG + anchor), 100 nM annealed; ATP concentration: 500 uM; one replicate
Procedure, shortened: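 Between each of five buffer/ATP cycles, the flow-cell was stripped with NaOH and re-annealed. Each cycle imaged Cy3-labelled switching-strand clusters, annealed to 100 nM quencher-labelled ATP aptamer on a modified Illumina MiSeq flow-cell, first in selection buffer and then after 15 min with 500 uM ATP at 22 °C. The fluorescence ratio is summed target-cycle over summed buffer-cycle Cy3 intensity per cluster, averaged per switch-domain sequence, with clusters outside 100-1000 RFU excluded.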
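Note: ATP exposure 15 min at 22 °C before imaging.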

Sequence | switch fluorescence ratio
CCGGACCCCG | 1.06
CCGGAGATG | 1.88
CCGGATAGTC | 1.71
CCGGATCGGT | 1.01
CCGGCACAAG | 1.4
CCGGCCCGCA | 3.95
CCGGCCGGC | 1.02
CCGGCCTATT | 1.05
CCGGCGATGG | 1.68
CCGGCGTAAC | 5.72
CCGGCTACTT | 1.05
CCGGCTATGA | 1.3
CCGGGCCCGT | 1.03
CCGGGCGGCG | 0.991
CCGGGCTAT | 1.94
CCGGGCTTGA | 0.993
CCGGGGAAAG | 1.03
CCGGGGACAT | 1.07
CCGGGGCCAT | 1.26
CCGGGTTCAG | 1.07
CCGGTCAATT | 1.68
CCGGTCCCCC | 1.59
CCGGTCGGTG | 1.04
CCGGTCTGAG | 1
CCGGTCTGGA | 0.942
CCGGTGAATT | 1.05

Sequence | switch fluorescence ratio
CCGGTGCA | 0.97
CCGGTGTTAT | 1.14
CCGGTTCCTG | 1.02
CCGTAAGTAA | 4.4
CCGTAATTCT | 4.11
CCGTACAGTT | 1.07
CCGTACCATA | 1.59
CCGTACTCTT | 1.31
CCGTATGGCC | 1.06
CCGTCCGTTC | 2.6
CCGTCTAGGT | 1.01
CCGTGAATGG | 2.43
CCGTGAGGGG | 1.07
CCGTGAGTGT | 1.1
CCGTGATTAG | 1.61
CCGTGCGGGA | 2.71
CCGTGCTGGT | 1.04
CCGTGGAAAT | 0.99
CCGTGGACAC | 1.79
CCGTGTACGT | 1.11
CCGTTAACCG | 1.04
CCGTTAAGC | 1.57
CCGTTACACT | 1.2
CCGTTAGGCT | 1.08
CCGTTCCGAT | 1.36
CCGTTGCCGA | 0.993

Sequence | switch fluorescence ratio
CCGTTTACTG | 1.05
CCGTTTGAGA | 0.95
CCGTTTTGGA | 0.963
CCTAAATCCC | 1.03
CCTAAATCCG | 1.9
CCTAACGCCA | 4.77
CCTAAGTAGA | 1.05
CCTAATTAAA | 0.992
CCTAATTGTT | 1.11
CCTACTCATG | 1.54
CCTAGAACTC | 1.06
CCTAGACTAT | 0.966
CCTAGCAGCA | 1.87
CCTAGCGGCC | 1.48
CCTAGGCGAC | 2.69
CCTAGGTAAG | 1.03
CCTAGTCGAT | 1.13
CCTAGTGAGA | 1
CCTAGTTCGA | 0.972
CCTATATACC | 1.15
CCTATCCAC | 1.12
CCTATCTCGT | 0.998
CCTATGAGCT | 1.06
CCTATTCACG | 1.05
CCTATTGCCA | 1.09

From the supplement of paper PMC10126150
